Laboratory results: the supplement of paper PMC6828730
The list shows a part of the results. Repeats are few or missing, and single values can be far off.

Legend:
[1] = test system: hiPSC-derived cardiomyocytes; experiment: time to death of most cells in well after compound addition (days); higher = less cardiotoxic; details: screen: 1; 10 µM
[2] = test system: hiPSC-derived cardiomyocytes; experiment: time to death of most cells in well after compound addition (days); higher = less cardiotoxic; extreme values may be limits of the assay; details: 10 µM

Cc1cc(Nc2ncc(Cl)c(Nc3ccccc3S(=O)(=O)C(C)C)n2)c(OC(C)C)cc1C1CCNCC1 [Ceritinib (LDK378)]
time to death of most cells in well [1]: 1 | time to death of most cells in well ([2]; screen: 2): 0.5 | time to death of most cells in well ([2]; screen: 3): 0.5 | time to death of most cells in well ([2]; screen: 4): 2.5

CNC(=O)c1cc(COc2nnc(Nc3ccc(Cl)cc3)c3ccoc23)ccn1 [Telatinib]
time to death of most cells in well [1]: > 7 | time to death of most cells in well ([2]; screen: 2): > 7 | time to death of most cells in well ([2]; screen: 3): > 7 | time to death of most cells in well ([2]; screen: 4): > 7

CN1CC[C@H](c2c(O)cc(O)c3c(=O)cc(-c4ccccc4Cl)oc23)[C@H](O)C1 [Flavopiridol (Alvocidib)]
time to death of most cells in well [1]: 2 | time to death of most cells in well ([2]; screen: 2): 2 | time to death of most cells in well ([2]; screen: 3): 6 | time to death of most cells in well ([2]; screen: 4): > 7

CC(C)(C)Cn1c(N)nc2ccc(-c3[nH]c(C(C)(C)C)nc3-c3ccc(F)cc3)nc21
time to death of most cells in well [1]: 2 | time to death of most cells in well ([2]; screen: 2): 6 | time to death of most cells in well ([2]; screen: 3): > 7 | time to death of most cells in well ([2]; screen: 4): > 7

COc1cc(Nc2ncc(F)c(Nc3ccc4c(n3)NC(=O)C(C)(C)O4)n2)cc(OC)c1OC [R406 (free base)]
time to death of most cells in well [1]: > 7 | time to death of most cells in well ([2]; screen: 2): 5 | time to death of most cells in well ([2]; screen: 3): > 7 | time to death of most cells in well ([2]; screen: 4): > 7

O=C(/C=C/c1ccc(O)c(O)c1)c1ccc(O)cc1O [Butein]
time to death of most cells in well [1]: > 7 | time to death of most cells in well ([2]; screen: 2): > 7 | time to death of most cells in well ([2]; screen: 3): > 7 | time to death of most cells in well ([2]; screen: 4): > 7

COc1cc(N2CCC(N(C)C)CC2)ccc1Nc1ncc(Cl)c(Nc2ccccc2P(C)(C)=O)n1
time to death of most cells in well [1]: > 7 | time to death of most cells in well ([2]; screen: 2): > 7 | time to death of most cells in well ([2]; screen: 3): 4 | time to death of most cells in well ([2]; screen: 4): 2.5

Cn1sc(=O)n(Cc2ccccc2)c1=O
time to death of most cells in well [1]: 0 | time to death of most cells in well ([2]; screen: 2): 0.5 | time to death of most cells in well ([2]; screen: 3): > 7 | time to death of most cells in well ([2]; screen: 4): 3

Cn1ncc(Cl)c1-c1cc(C(=O)N[C@H](CN)Cc2ccc(F)c(F)c2)oc1Cl
time to death of most cells in well [1]: 4.5 | time to death of most cells in well ([2]; screen: 2): 4 | time to death of most cells in well ([2]; screen: 3): > 7 | time to death of most cells in well ([2]; screen: 4): > 7

CS(=O)(=O)c1ccc(-c2cnc(N)c(C(=O)Nc3ccccc3)n2)cc1
time to death of most cells in well [1]: > 7 | time to death of most cells in well ([2]; screen: 2): > 7 | time to death of most cells in well ([2]; screen: 3): > 7 | time to death of most cells in well ([2]; screen: 4): > 7

Cc1ccc(Nc2nccc(N(C)c3ccc4c(C)n(C)nc4c3)n2)cc1S(N)(=O)=O [Pazopanib]
time to death of most cells in well [1]: 2.5 | time to death of most cells in well ([2]; screen: 2): 2 | time to death of most cells in well ([2]; screen: 3): 3 | time to death of most cells in well ([2]; screen: 4): > 7

NC1(C(=O)N[C@@H](CCO)c2ccc(Cl)cc2)CCN(c2ncnc3[nH]ccc23)CC1
time to death of most cells in well [1]: > 7 | time to death of most cells in well ([2]; screen: 2): 4.5 | time to death of most cells in well ([2]; screen: 3): 6 | time to death of most cells in well ([2]; screen: 4): > 7

Oc1ccc(Nc2nc(-c3ccc(Cl)cc3)cs2)cc1
time to death of most cells in well [1]: 2.5 | time to death of most cells in well ([2]; screen: 2): > 7 | time to death of most cells in well ([2]; screen: 3): > 7 | time to death of most cells in well ([2]; screen: 4): > 7

COCCOc1cnc2ccn([C@H](C)c3nnc4c(F)cc(-c5cnn(C)c5)cn34)c(=O)c2c1
time to death of most cells in well [1]: 2.5 | time to death of most cells in well ([2]; screen: 2): 2.5 | time to death of most cells in well ([2]; screen: 3): > 7 | time to death of most cells in well ([2]; screen: 4): > 7

O=C(NCc1ccccc1)c1csc(Nc2ccncn2)n1 [Thiazovivin]
time to death of most cells in well [1]: 5 | time to death of most cells in well ([2]; screen: 2): 3 | time to death of most cells in well ([2]; screen: 3): > 7 | time to death of most cells in well ([2]; screen: 4): > 7
